From publication PMC6440744 come the findings set out here.

The chains behind the UniProt entries cited, without tags or fusion partners. Residues count along the entry.
UniProt P28827, residues 877-1452: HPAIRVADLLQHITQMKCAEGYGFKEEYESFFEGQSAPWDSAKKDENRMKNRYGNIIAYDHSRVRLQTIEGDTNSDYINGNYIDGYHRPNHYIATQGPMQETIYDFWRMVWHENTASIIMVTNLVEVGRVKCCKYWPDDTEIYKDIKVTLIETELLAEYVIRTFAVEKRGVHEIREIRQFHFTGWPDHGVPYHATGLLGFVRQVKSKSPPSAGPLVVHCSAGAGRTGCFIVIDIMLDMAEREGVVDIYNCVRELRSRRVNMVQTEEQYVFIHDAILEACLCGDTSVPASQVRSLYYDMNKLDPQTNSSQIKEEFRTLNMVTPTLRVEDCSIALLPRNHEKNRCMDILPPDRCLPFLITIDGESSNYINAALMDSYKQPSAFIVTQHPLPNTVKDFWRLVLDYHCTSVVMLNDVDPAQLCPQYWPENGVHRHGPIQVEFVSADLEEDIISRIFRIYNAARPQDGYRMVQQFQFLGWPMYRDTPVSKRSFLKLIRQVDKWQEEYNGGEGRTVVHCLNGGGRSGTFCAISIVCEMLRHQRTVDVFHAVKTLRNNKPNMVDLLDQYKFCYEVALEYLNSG
UniProt Q8TDM6: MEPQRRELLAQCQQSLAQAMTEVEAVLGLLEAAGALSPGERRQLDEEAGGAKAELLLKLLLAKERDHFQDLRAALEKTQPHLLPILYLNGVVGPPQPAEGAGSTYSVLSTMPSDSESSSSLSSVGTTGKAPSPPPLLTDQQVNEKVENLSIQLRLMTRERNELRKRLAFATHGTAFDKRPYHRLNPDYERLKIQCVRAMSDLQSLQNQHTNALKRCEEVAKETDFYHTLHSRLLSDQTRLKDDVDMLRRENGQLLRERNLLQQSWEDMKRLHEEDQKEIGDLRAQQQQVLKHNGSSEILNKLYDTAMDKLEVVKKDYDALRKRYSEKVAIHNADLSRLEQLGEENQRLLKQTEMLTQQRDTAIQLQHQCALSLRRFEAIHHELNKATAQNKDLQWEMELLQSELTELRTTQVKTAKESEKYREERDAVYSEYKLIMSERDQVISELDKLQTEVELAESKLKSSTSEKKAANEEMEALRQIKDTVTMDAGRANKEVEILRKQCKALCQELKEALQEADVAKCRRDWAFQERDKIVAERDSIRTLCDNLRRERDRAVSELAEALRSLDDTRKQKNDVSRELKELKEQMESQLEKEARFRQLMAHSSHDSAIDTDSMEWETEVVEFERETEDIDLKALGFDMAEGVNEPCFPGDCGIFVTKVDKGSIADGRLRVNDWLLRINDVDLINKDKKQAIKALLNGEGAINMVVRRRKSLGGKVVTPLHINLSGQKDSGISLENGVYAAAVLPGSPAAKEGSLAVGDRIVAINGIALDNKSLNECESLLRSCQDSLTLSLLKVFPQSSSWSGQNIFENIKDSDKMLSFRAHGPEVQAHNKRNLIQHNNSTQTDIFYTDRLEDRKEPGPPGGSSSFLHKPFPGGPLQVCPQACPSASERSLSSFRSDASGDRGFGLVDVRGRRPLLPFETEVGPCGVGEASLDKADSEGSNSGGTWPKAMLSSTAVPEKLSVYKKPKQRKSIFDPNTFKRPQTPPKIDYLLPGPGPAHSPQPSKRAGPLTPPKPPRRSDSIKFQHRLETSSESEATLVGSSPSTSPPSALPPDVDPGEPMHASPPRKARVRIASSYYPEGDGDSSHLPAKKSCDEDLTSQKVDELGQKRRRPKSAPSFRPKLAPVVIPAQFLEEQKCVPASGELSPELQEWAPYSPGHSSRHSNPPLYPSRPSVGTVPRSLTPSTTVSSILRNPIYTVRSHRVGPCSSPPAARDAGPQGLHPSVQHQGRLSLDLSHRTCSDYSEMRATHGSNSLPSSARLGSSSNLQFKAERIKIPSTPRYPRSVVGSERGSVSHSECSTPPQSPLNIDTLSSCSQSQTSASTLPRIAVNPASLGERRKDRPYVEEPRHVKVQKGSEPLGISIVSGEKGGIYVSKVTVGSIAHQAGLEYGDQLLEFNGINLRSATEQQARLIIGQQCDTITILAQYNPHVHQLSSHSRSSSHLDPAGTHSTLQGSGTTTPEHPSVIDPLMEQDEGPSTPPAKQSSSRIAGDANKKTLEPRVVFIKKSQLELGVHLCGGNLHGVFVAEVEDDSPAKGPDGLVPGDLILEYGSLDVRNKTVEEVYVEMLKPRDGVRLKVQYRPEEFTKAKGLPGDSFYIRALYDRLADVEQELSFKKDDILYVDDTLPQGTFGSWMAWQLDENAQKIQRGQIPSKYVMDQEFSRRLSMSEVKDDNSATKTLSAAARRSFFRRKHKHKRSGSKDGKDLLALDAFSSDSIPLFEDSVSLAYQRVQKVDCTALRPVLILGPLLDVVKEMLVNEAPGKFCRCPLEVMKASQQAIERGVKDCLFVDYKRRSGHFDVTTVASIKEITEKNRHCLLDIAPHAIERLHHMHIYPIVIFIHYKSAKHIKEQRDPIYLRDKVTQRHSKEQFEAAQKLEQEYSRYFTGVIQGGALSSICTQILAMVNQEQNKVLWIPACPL
UniProt O95819: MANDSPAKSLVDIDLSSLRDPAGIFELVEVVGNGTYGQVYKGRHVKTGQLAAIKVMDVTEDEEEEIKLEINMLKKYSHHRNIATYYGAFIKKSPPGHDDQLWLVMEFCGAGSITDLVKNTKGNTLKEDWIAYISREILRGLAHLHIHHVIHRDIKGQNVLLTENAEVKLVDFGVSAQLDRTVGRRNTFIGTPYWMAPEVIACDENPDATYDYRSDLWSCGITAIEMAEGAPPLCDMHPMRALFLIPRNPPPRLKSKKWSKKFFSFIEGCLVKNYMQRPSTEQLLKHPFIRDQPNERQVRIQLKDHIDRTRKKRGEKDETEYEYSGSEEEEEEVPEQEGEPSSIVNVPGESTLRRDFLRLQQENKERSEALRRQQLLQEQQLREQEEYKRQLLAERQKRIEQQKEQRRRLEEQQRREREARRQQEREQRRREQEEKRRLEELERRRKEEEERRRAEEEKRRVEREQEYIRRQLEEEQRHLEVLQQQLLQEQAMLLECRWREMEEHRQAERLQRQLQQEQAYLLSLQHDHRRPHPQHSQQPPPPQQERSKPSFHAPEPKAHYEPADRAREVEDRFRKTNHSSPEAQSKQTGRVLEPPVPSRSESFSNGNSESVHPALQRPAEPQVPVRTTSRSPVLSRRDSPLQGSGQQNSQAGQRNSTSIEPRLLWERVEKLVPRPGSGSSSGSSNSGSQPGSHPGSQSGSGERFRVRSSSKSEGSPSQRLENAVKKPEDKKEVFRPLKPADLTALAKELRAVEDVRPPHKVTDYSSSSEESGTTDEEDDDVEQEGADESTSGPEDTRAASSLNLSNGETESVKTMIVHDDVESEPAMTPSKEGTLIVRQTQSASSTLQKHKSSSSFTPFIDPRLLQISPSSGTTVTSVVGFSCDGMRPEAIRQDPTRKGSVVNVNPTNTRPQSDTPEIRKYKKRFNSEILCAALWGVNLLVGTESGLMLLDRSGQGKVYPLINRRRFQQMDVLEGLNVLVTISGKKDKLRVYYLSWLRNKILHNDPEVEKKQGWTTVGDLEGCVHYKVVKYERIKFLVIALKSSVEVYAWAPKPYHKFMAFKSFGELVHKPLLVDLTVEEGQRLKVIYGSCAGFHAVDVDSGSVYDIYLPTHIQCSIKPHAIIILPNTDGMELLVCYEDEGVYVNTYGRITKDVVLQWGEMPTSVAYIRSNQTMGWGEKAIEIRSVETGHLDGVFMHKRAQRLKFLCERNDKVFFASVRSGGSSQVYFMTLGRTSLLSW
UniProt P49023: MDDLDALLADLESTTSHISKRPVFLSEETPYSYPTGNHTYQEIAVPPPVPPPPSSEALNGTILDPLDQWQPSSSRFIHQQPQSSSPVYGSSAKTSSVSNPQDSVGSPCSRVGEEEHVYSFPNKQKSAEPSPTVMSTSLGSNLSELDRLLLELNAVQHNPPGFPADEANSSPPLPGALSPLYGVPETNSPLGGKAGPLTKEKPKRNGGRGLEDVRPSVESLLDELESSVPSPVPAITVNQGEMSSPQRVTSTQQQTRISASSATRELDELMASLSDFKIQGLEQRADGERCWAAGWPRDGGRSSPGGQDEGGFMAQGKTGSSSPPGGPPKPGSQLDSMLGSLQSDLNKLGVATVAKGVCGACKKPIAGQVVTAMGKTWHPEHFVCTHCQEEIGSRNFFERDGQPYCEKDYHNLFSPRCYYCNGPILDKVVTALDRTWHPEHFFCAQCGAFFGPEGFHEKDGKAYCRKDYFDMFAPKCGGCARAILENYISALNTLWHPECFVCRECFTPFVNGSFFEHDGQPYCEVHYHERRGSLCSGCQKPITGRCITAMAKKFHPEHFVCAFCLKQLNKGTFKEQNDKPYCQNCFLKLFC
UniProt P40763: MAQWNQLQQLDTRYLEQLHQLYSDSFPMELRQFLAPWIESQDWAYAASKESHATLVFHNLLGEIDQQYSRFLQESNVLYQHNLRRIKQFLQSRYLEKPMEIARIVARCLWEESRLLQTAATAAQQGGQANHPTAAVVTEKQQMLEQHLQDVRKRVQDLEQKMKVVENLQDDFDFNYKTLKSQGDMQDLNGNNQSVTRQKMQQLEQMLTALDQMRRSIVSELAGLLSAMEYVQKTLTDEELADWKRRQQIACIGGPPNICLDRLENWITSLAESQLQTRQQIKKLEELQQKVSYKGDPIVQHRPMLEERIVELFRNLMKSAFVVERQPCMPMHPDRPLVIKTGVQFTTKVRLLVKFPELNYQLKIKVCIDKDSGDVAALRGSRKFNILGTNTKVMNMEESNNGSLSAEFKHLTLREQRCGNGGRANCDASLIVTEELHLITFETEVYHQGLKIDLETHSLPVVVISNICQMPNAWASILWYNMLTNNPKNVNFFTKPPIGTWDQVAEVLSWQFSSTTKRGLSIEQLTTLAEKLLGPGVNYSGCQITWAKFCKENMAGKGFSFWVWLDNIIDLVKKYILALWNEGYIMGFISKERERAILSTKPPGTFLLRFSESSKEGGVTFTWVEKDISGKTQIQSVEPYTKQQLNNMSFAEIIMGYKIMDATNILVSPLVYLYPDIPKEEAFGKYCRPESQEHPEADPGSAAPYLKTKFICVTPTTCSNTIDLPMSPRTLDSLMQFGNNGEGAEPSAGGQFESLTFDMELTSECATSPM
UniProt P35222: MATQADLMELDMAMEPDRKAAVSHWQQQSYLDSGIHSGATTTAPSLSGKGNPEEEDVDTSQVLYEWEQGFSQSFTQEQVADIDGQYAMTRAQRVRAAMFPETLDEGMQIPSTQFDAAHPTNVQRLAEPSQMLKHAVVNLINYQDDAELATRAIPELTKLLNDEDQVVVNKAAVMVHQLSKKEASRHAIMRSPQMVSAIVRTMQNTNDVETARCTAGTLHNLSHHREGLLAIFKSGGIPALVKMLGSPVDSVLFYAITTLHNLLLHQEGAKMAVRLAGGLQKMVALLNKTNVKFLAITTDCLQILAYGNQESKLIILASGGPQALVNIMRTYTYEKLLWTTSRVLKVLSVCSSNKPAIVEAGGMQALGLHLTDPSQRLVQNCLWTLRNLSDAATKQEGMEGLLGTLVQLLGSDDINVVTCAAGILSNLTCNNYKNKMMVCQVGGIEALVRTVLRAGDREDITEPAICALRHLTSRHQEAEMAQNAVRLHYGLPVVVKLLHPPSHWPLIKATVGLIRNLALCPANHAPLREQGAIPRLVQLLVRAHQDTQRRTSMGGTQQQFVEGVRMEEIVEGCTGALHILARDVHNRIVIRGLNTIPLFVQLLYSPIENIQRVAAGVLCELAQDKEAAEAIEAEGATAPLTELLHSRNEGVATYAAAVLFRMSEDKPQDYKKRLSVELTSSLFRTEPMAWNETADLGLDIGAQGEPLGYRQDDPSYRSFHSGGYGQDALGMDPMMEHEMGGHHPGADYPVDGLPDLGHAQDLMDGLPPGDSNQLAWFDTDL

Numbering of substitutions follows the chain as printed. No constants are given. Whether binding was seen depends on the method and setting. In cells and extracts the contact can be indirect. Some entries that bind do so weakly or less than the wild type.

Test [1] has as its target PTPRM intracellular domain (ICD) (human) (UniProt P28827). The experiment in a line: pull-down; biotinylated His.TEV.Avi PTPRK, PTPRM or chimeric domains on streptavidin-coated magnetic beads; lysate of confluent, pervanadate-treated MCF10A cells, 1.5 hr at 4°C; immunoblot of inputs, supernatants and pull downs; only the target purified.
The target of test [2] is T1, PTPRK ICD-D1057A (substrate-trapping mutant) (human) (UniProt Q15262).
T1 sequence (chain, biotin on the AviTag): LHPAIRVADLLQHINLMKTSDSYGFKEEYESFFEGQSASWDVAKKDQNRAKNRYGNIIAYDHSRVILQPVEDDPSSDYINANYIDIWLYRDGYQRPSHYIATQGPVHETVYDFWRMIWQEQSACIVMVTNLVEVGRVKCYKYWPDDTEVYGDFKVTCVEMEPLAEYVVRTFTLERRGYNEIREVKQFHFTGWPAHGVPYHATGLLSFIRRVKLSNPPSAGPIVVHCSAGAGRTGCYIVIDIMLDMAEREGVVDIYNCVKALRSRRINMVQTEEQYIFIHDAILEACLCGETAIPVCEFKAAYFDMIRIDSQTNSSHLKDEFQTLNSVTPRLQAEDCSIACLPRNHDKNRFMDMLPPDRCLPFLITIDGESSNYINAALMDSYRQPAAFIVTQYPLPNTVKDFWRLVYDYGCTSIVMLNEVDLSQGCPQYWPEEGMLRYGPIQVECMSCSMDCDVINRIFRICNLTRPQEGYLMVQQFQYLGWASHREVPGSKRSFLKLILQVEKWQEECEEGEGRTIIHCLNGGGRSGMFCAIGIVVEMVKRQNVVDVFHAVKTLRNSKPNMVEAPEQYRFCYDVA
Described as above.

Test [3] has as its target T1, PTPRK ICD-D1057A (substrate-trapping mutant) (human). The experiment in a line: pull-down; pull downs from confluent, pervanadate-treated MCF10A lysates with PTPRK D1057A ICD or PTPRK-D2, then incubated with 20 mM vanadate for 30 min; immunoblot of eluates and pull downs; only the target purified.
In test [4] the target is T2, PTPRK D2 pseudophosphatase domain (human) (UniProt Q15262).
T2 sequence (chain, biotin on the AviTag): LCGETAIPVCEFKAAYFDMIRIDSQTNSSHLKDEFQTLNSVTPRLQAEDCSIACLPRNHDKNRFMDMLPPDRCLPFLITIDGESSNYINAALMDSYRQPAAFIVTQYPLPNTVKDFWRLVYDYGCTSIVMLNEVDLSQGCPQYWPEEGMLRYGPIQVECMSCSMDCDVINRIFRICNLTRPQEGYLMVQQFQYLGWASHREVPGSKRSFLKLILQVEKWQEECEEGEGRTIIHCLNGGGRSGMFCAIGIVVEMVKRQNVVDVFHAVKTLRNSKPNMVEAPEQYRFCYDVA
The experiment in a line: pull-down; biotinylated His.TEV.Avi PTPRK, PTPRM or chimeric domains on streptavidin-coated magnetic beads; lysate of confluent, pervanadate-treated MCF10A cells, 1.5 hr at 4°C; immunoblot of inputs, supernatants and pull downs; only the target purified.

Test [5] deals with T3, PTPRK ICD-C1089S (substrate-trapping mutant) (human) (UniProt Q15262).
T3 sequence (chain, biotin on the AviTag): T1 sequence (chain, biotin on the AviTag) with A194D, C226S
Described as above.

For the molecule DLG5 (from UniProt Q8TDM6 1-1919), in test [1], the binding result is reported as “binds”.
Turning to MAP4K4 (from UniProt O95819 1-1239), the binding entry in test [1], in test [2] and in test [3] was “binds” in each case.
For the molecule MINK1 (from UniProt Q8N4C8 1-1332), the binding result in test [1] is given as “binds”.
Regarding Paxillin (from UniProt P49023 1-591), the binding entry in test [4], in test [5] and in test [2] was “no binding” in each case.
In the case of RAPGEF6 (from UniProt Q8TEU7 1-1601), the binding entry in test [2] and in test [3] was “binds” each time.
Regarding STAT3 (from UniProt P40763 1-770), the binding entry in test [4], in test [5] and in test [2] was “no binding” each time.
With β-Catenin (from UniProt P35222 1-781), the binding entry in test [4], in test [5] and in test [2] was “no binding” in each case.

B1: PKP3 (protein, UniProt Q9Y446 1-797)
chain: MQDGNFLLSALQPEAGVCSLALPSDLQLDRRGAEGPEAERLRAARVQEQVRARLLQLGQQPRHNGAAEPEPEAETARGTSRGQYHTLQAGFSSRSQGLSGDKTSGFRPIAKPAYSPASWSSRSAVDLSCSRRLSSAHNGGSAFGAAGYGGAQPTPPMPTRPVSFHERGGVGSRADYDTLSLRSLRLGPGGLDDRYSLVSEQLEPAATSTYRAFAYERQASSSSSRAGGLDWPEATEVSPSRTIRAPAVRTLQRFQSSHRSRGVGGAVPGAVLEPVARAPSVRSLSLSLADSGHLPDVHGFNSYGSHRTLQRLSSGFDDIDLPSAVKYLMASDPNLQVLGAAYIQHKCYSDAAAKKQARSLQAVPRLVKLFNHANQEVQRHATGAMRNLIYDNADNKLALVEENGIFELLRTLREQDDELRKNVTGILWNLSSSDHLKDRLARDTLEQLTDLVLSPLSGAGGPPLIQQNASEAEIFYNATGFLRNLSSASQATRQKMRECHGLVDALVTSINHALDAGKCEDKSVENAVCVLRNLSYRLYDEMPPSALQRLEGRGRRDLAGAPPGEVVGCFTPQSRRLRELPLAADALTFAEVSKDPKGLEWLWSPQIVGLYNRLLQRCELNRHTTEAAAGALQNITAGDRRWAGVLSRLALEQERILNPLLDRVRTADHHQLRSLTGLIRNLSRNARNKDEMSTKVVSHLIEKLPGSVGEKSPPAEVLVNIIAVLNNLVVASPIAARDLLYFDGLRKLIFIKKKRDSPDSEKSSRAASSLLANLWQYNKLHRDFRAKGYRKEDFLGP
With B1, the binding result in test [1] is on record as “binds”.

B2: NUFIP2 (protein, UniProt Q7Z417 1-695)
chain: MEEKPGQPQPQHHHSHHHPHHHPQQQQQQPHHHHHYYFYNHSHNHHHHHHHQQPHQYLQHGAEGSPKAQPKPLKHEQKHTLQQHQETPKKKTGYGELNGNAGEREISLKNLSSDEATNPISRVLNGNQQVVDTSLKQTVKANTFGKAGIKTKNFIQKNSMDKKNGKSYENKSGENQSVDKSDTIPIPNGVVTNNSGYITNGYMGKGADNDGSGSESGYTTPKKRKARRNSAKGCENLNIVQDKIMQQETSVPTLKQGLETFKPDYSEQKGNRVDGSKPIWKYETGPGGTSRGKPAVGDMLRKSSDSKPGVSSKKFDDRPKGKHASAVASKEDSWTLFKPPPVFPVDNSSAKIVPKISYASKVKENLNKTIQNSSVSPTSSSSSSSSTGETQTQSSSRLSQVPMSALKSVTSANFSNGPVLAGTDGNVYPPGGQPLLTTAANTLTPISSGTDSVLQDMSLTSAAVEQIKTSLFIYPSNMQTMLLSTAQVDLPSQTDQQNLGDIFQNQWGLSFINEPSAGPETVTGKSSEHKVMEVTFQGEYPATLVSQGAEIIPSGTEHPVFPKAYELEKRTSPQVLGSILKSGTTSESGALSLEPSHIGDLQKADTSSQGALVFLSKDYEIESQNPLASPTNTLLGSAKEQRYQRGLERNDSWGSFDLRAAIVYHTKEMESIWNLQKQDPKRIITYNEAMDSPDQ
For the molecule B2, the binding entry in test [5] was “binds”.

B3: PTPN14 (protein, UniProt Q15678 1-1187)
chain: MPFGLKLRRTRRYNVLSKNCFVTRIRLLDSNVIECTLSVESTGQECLEAVAQRLELRETHYFGLWFLSKSQQARWVELEKPLKKHLDKFANEPLLFFGVMFYVPNVSWLQQEATRYQYYLQVKKDVLEGRLRCTLDQVIRLAGLAVQADFGDYNQFDSQDFLREYVLFPMDLALEEAVLEELTQKVAQEHKAHSGILPAEAELMYINEVERLDGFGQEIFPVKDNHGNCVHLGIFFMGIFVRNRIGRQAVIYRWNDMGNITHNKSTILVELINKEETALFHTDDIENAKYISRLFATRHKFYKQNKICTEQSNSPPPIRRQPTWSRSSLPRQQPYILPPVHVQCGEHYSETHTSQDSIFHGNEEALYCNSHNSLDLNYLNGTVTNGSVCSVHSVNSLNCSQSFIQASPVSSNLSIPGSDIMRADYIPSHRHSAIIVPSYRPTPDYETVMRQMKRGILHTDSQSQSLRNLNIINTHAYNQPEDLVYSQPEMRERHPYTVPYGPQGVYSNKLVSPSDQRNPKNNVVPSKPGASAISHTVSTPELANMQLQGSHNYSTAHMLKNYLFRPPPPYPRPRPATSTPDLASHRHKYVSGSSPDLVTRKVQLSVKTFQEDSSPVVHQSLQEVSEPLTATKHHGTVNKRHSLEVMNSMVRGMEAMTLKSLHLPMARRNTLREQGPPEEGSGSHEVPQLPQYHHKKTFSDATMLIHSSESEEEEEEAPESVPQIPMLREKMEYSAQLQAALARIPNKPPPEYPGPRKSVSNGALRQDQASLPPAMARARVLRHGPAKAISMSRTDPPAVNGASLGPSISEPDLTSVKERVKKEPVKERPVSEMFSLEDSIIEREMMIRNLEKQKMAGLEAQKRPLMLAALNGLSVARVSGREENRVDATRVPMDERFRTLKKKLEEGMVFTEYEQIPKKKANGIFSTAALPENAERSRIREVVPYEENRVELIPTKENNTGYINASHIKVVVGGAEWHYIATQGPLPHTCHDFWQMVWEQGVNVIAMVTAEEEGGRTKSHRYWPKLGSKHSSATYGKFKVTTKFRTDSVCYATTGLKVKHLLSGQERTVWHLQYTDWPDHGCPEDVQGFLSYLEEIQSVRRHTNSMLEGTKNRHPPIVVHCSAGVGRTGVLILSELMIYCLEHNEKVEVPMMLRLLREQRMFMIQTIAQYKFVYQVLIQFLQNSRLI
As to B3, in test [1], the binding result was “binds”.

B4: ABLIM3 (protein, UniProt O94929 1-683)
chain: MNTSIPYQQNPYNPRGSSNVIQCYRCGDTCKGEVVRVHNNHFHIRCFTCQVCGCGLAQSGFFFKNQEYICTQDYQQLYGTRCDSCRDFITGEVISALGRTYHPKCFVCSLCRKPFPIGDKVTFSGKECVCQTCSQSMASSKPIKIRGPSHCAGCKEEIKHGQSLLALDKQWHVSCFKCQTCSVILTGEYISKDGVPYCESDYHAQFGIKCETCDRYISGRVLEAGGKHYHPTCARCVRCHQMFTEGEEMYLTGSEVWHPICKQAARAEKKLKHRRTSETSISPPGSSIGSPNRVICAKVDNEILNYKDLAALPKVKSIYEVQRPDLISYEPHSRYMSDEMLERCGYGESLGTLSPYSQDIYENLDLRQRRASSPGYIDSPTYSRQGMSPTFSRSPHHYYRSGPESGRSSPYHSQLDVRSSTPTSYQAPKHFHIPAGDSNIYRKPPIYKRHGDLSTATKSKTSEDISQTSKYSPIYSPDPYYASESEYWTYHGSPKVPRARRFSSGGEEDDFDRSMHKLQSGIGRLILKEEMKARSSSYADPWTPPRSSTSSREALHTAGYEMSLNGSPRSHYLADSDPLISKSASLPAYRRNGLHRTPSADLFHYDSMNAVNWGMREYKIYPYELLLVTTRGRNRLPKDVDRTRLERHLSQEEFYQVFGMTISEFDRLALWKRNELKKQARLF
In the case of B4, the binding entry in test [1] is on record as “binds”.
